Experimental data published in the GPR68 mutational scans of Howard et al. (2025).

B1: GPR68, Q15743 (parent)
chain: MGNITADNSSMSCTIDHTIHQTLAPVVYVTVLVVGFPANCLSLYFGYLQIKARNELGVYLCNLTVADLFYICSLPFWLQYVLQHDNWSHGDLSCQVCGILLYENIYISVGFLCCISVDRYLAVAHPFRFHQFRTLKAAVGVSVVIWAKELLTSIYFLMHEEVIEDENQHRVCFEHYPIQAWQRAINYYRFLVGFLFPICLLLASYQGILRAVRRSHGTQKSRKDQIQRLVLSTVVIFLACFLPYHVLLLVRSVWEASCDFAKGVFNAYHFSLLLTSFNCVADPVLYCFVSETTHRDLARLRGACLAFLTCSRTGRAREAYPLGAPEASGKSGAQGEEPELLTKLHPAFQTPNSPGSGGFPTGRLA

Columns and labels:
[1] = variants of: B1; assay: cAMP reporter score (Enrich2 score, wild type = 0); higher = more signal; HEK293T, FACS bins
[2] = variants of: B1; assay: surface expression score (Enrich2 score, wild type = 0); higher = more signal; HEK293T, FACS bins

Variant	cAMP reporter score ([1]; pH 5.5)	cAMP reporter score ([1]; pH 6)	cAMP reporter score ([1]; pH 6, modulator: ogerin)	cAMP reporter score ([1]; pH 6.5, modulator: ogerin)	surface expression score [2]
H345Y	-0.413	-0.161	-0.191	0.016	-0.358
H345Q	0.022	0.497	-0.159	0.661	0.039
H345L	1.15		1.35	0.953	-0.617
H345T	0.956	1.88	-0.051	0.829	1.65
H345A	1.18		2.17	1.61	1.69
H345E	0.715	0.651	0.853	1.03	1.58
H345G	0.738		1.32	1.9	1.34
H345K	-0.016	-1.27	1.14	-0.463	0.899
H345D	-0.403	-0.747	-0.753	-0.376	0.619
H345N	-0.634		0.286		0.646
E339_L340insGS	0.631		0.563	1.34	0.724
T350_P351insGS	1.25	1.21	1.6	1.59	1.17
P338_E339insGS	0.339	0.27	0.766	-0.087	1.12
A347_F348del	0.339	0.063	0.662	0.279	0.271
P338_E339insGSG	0.918	1.39	0.669	1.11	1.54
L340_L341insG	0.346	2.67	1.4	0.871	1.32

Variant	cAMP reporter score ([1]; pH 5.5)	cAMP reporter score ([1]; pH 6)	cAMP reporter score ([1]; pH 6, modulator: ogerin)	cAMP reporter score ([1]; pH 6.5, modulator: ogerin)	surface expression score [2]
K343_H345del	0.6	-0.431	0.533	1.71	0.807
P338_E339del	0.381	0.985	0.125	0.61	-0.157
H345_P346insGSG	0.629	0.472	1.23	1.33	0.93
L341_T342insGS	-0.865	-0.565	-0.299	-0.631	0.092
T350del	-0.275	-0.44		1.23	0.224
T350_N352del	-0.168	-0.508	-0.047	-0.412	-0.766
T350_P351insG	0.113	-0.193	0.129	-0.134	0.167
Q349_P351del	-0.329		0.206	-0.409	-0.23
H345_P346del	0.346	0.046	0.281	-0.034	0.637
P351C	0.462	-0.98	0.429	0.405	0.459
P351A	-0.213	-0.677	-0.739	0.169	
P351E	-0.182	-0.228	-0.173	-0.35	0.552
P351F	1.86	0.28	1.27	0.209	1.31
P351G	-0.18	-0.4	0.216	0.38	-0.076
P351D	0.205	1.24	-0.049	0.342	0.337
P346_F348del	-0.22	-0.459	-0.166	-0.601	-0.161

The least precise scores are not listed. Two further conditions of the source, in which the scores hardly spread, are not listed. Read del as a deletion of the residues named and ins as an insertion between two positions. For some of these results: How much ogerin was present is not stated here.
